Results from PubChem BioAssay AID1347165 (National Center for Advancing Translational Sciences (NCATS), 2019).
Among all 220,000 compounds or so, about 5,700 (2.6%) were called active. The inconclusive results got no clear call from the source; some entries with a clear call stand among them for comparison. Calls come from the whole dose curve; as a rule, active = well fitted inhibition curve with a large enough effect; inconclusive = small, poorly fitted or top-dose-only effect; inactive = no such curve, though single readings can be large or run the other way. Potencies beside an inconclusive call are fits to weak or partial responses and may not hold up.

biological target: Lysine-specific demethylase 5B (Homo sapiens) (UniProt Q9UGL1); assay: Primary screen for KDM5B Histone Demethylases FDH-coupled qHTS; settings: FDH-coupled NADH fluorescence (FDH is formaldehyde dehydrogenase); series mostly up to 57.7 µM; note: nearly all actives have a fitted effect of over 70% in size
How it was run: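 Coupled FDH/NAD⁺ fluorescence readout. KDM5BΔAP 200 nM final; compound titration, 10 min RT preincubation; substrate mix 12.5 µM H3K4me3, 25 µM 2-OG, 50 µM Fe(II), 100 µM ascorbate, 0.25 mM NAD⁺, 0.25 U/mL FDH; ΔRFU over 30 min.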
Potency is the fitted concentration of half-maximal effect; tags give direction and shape of the fitted curve.

Sequence of UniProt Q9UGL1 (Q9UGL1 whole entry, looked up): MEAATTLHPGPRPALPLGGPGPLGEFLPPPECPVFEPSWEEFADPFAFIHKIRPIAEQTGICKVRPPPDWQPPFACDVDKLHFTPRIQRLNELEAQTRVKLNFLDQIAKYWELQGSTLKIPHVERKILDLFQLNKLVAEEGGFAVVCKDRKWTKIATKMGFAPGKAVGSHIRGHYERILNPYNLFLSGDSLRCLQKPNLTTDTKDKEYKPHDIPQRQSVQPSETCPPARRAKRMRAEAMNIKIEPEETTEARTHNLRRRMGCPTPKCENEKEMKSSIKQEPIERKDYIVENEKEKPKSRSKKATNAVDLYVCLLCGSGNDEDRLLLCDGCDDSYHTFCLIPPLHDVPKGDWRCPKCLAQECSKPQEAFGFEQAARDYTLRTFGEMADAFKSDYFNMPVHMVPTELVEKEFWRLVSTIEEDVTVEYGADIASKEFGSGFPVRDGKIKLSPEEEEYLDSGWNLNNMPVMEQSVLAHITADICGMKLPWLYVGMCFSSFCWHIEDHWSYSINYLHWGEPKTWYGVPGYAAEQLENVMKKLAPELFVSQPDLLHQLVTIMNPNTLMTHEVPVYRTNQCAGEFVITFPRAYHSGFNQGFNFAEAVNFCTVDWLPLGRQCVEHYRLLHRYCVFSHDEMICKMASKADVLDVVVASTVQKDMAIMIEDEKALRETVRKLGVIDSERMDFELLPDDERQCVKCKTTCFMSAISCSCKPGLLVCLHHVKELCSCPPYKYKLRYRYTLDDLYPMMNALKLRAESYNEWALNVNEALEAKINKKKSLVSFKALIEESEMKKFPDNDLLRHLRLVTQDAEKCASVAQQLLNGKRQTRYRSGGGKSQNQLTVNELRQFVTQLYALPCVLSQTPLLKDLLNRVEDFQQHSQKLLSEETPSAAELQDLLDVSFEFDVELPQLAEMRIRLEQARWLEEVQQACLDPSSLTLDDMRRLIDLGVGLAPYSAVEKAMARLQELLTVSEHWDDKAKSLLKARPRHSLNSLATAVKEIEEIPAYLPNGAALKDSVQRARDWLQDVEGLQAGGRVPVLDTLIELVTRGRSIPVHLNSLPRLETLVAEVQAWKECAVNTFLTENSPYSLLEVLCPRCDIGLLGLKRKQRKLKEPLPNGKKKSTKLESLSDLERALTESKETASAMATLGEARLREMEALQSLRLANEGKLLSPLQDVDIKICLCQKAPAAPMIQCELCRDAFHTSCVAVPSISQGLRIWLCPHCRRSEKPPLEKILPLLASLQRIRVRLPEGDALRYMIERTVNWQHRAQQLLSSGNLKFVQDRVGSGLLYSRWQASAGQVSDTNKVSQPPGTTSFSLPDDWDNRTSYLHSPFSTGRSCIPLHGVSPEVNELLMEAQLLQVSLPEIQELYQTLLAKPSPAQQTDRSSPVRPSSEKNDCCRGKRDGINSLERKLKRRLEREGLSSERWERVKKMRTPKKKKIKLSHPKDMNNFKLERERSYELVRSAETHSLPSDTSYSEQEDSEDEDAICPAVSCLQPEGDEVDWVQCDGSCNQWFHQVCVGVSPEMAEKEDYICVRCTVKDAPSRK

| SMILES | Potency |
| --- | --- |
| Cc1cc(-c2nnc(CN3CCN(c4cnn(-c5ccccc5)c(=O)c4Cl)CC3)o2)c(C)o1 | inconclusive: 31.6 µM [inhibitor, single point] |
| CCc1ccc(NC(=O)C2CCCN2S(=O)(=O)c2ccc3c(c2)n(C)c(=O)c(=O)n3C)cc1 (configuration not stated) | inconclusive: 39.8 µM [inhibitor, single point] |
| COc1cccc(C(=O)/C=C2\NCCc3cc(OC)c(OC)cc32)c1 | inconclusive: 31.6 µM [inhibitor, partial curve, poor fit] |
| COc1cc(OC)c2cc(C(=O)NCC(=O)Nc3nc(C)cs3)n(C)c2c1 | inconclusive: 31.6 µM [inhibitor, partial curve, poor fit] |
| CN(C)CCNC(=O)c1ccc2c(c1)NC(=O)C(CS(=O)(=O)Cc1cccc(Br)c1)N2 (configuration not stated) | inconclusive: 14.1 µM [inhibitor, partial curve, poor fit] |
| COc1cccc2cc(C(=O)NCc3ccc(Cl)cc3)c(=N)oc12 | inconclusive: 39.8 µM [inhibitor, single point] |
| CCCCCCCCCCCCS(=O)C1CCCCC1OC(C)=O (configuration not stated) | inactive |
| CCN(Cc1nc2cc(OC)c(OC)cc2c(=O)[nH]1)C(=O)c1cccc(F)c1 | inactive |
| Cc1nnc2sc(-c3ccc(CNC(=O)c4ccccc4Cl)cc3)nn12 | inactive |
| Cc1cc(C)nc(NC(c2cccs2)c2c(NC(=O)c3ccco3)sc(C)c2C)n1 (configuration not stated) | inconclusive: 35.5 µM [inhibitor, single point] |
| Cc1ccc(C)c(NC(=O)c2csc3c2CCCCC3)c1 | inactive |
| c1ccc(CCNc2nc(-c3ccncc3)nc3ccccc23)cc1 | inconclusive: 39.8 µM [inhibitor, single point] |
| Cc1ccc(C(=O)N2CCCC(c3nc(-c4cccnc4)no3)CCNC(=O)CC2)cn1 (configuration not stated) | inconclusive: 22.4 µM [inhibitor, partial curve, poor fit] |
| COc1cc(NC(=O)CSc2nnc(-c3ccccc3OC)n2-c2ccccc2)cc(OC)c1 | inactive |
| CCN(CC)c1ccc2cc(-c3nc(-c4cccs4)no3)c(=O)oc2c1 | inconclusive: 12.6 µM [inhibitor, partial curve, poor fit] |
| CC(=O)c1ccc(N2CCN(C(=O)CCC(=O)Nc3ccc4nc(N5CCCCC5)cc(C)c4c3)CC2)cc1 | inconclusive: 22.4 µM [inhibitor, partial curve, poor fit] |
| CS(=O)(=O)c1ccc(CN2CCC[C@H]2c2nc(-c3ccc(N4CCC(C(N)=O)CC4)nc3)no2)cc1 | inconclusive: 28.2 µM [inhibitor, single point] |
| COc1ccccc1CCC(=O)N1CCN(c2cc(-c3ccc(Cl)cc3)[nH]n2)CC1 | inconclusive: 20 µM [inhibitor, partial curve, poor fit] |
| CCN(C(=O)c1cccc(F)c1F)[C@@H]1CCN(c2ncccc2C#N)C[C@H]1O | active: 28.2 µM |
| CC(Sc1nnc(N2CCCC2)n1-c1cccc(Cl)c1)c1nc(-c2ccco2)no1 (configuration not stated) | inactive |
| Cc1ccsc1-c1nc(CN2CCC(CCn3cccn3)CC2)c(C)o1 | inconclusive: 20 µM [inhibitor, single point] |

| SMILES | Potency |
| --- | --- |
| CC(=O)NNC(=S)Nc1ccc(Cl)cc1Cl | inactive |
| CN(C)C(=O)C(OC(=O)c1cc(-c2cccs2)nc2ccccc12)c1ccccc1 (configuration not stated) | inconclusive: 28.2 µM [inhibitor, partial curve, poor fit] |
| O=C(Nc1ccc(-c2ccccc2)cc1)c1c[nH]c2ccccc12 | inconclusive: 22.4 µM [inhibitor, partial curve, poor fit] |
| COc1ccc(C(=O)Nc2nc3n(n2)C(c2ccccc2)C=C(c2ccccc2)N3)cc1 (configuration not stated) | inconclusive: 4.47 µM [inhibitor, partial curve, poor fit] |
| COc1ccc(-c2cnc3ccccc3n2)cc1NC(=O)CNC(=O)c1ccccc1 | inconclusive: 25.1 µM [inhibitor, partial curve, poor fit] |
| CCc1ccc(-c2cn3c(n2)sc2cc(C(=O)NCCC4=CCCCC4)ccc23)cc1 | inconclusive: 25.1 µM [inhibitor, partial curve, poor fit] |
| Cc1ncc2c(c1CNC(=O)Cn1cnc3ccccc3c1=O)CCNC2 | inconclusive: 28.2 µM [inhibitor, partial curve, poor fit] |
| CCCc1cc(=O)oc2cc(OC(C)C(=O)Nc3cccc(C(C)=O)c3)ccc12 (configuration not stated) | inconclusive: 31.6 µM [inhibitor, partial curve, poor fit] |
| CCOC(=O)COc1ccc2c(=O)cc(-c3ccccc3)oc2c1 | inconclusive: 31.6 µM [inhibitor, partial curve, poor fit] |
| O=C(c1ccc(Cl)cc1)C(CN1CCCCC1)c1ccccc1 (configuration not stated) | inconclusive: 39.8 µM [inhibitor, partial curve, poor fit] |
| O=C(c1cn[nH]c1-c1ccccc1)N1CC2CC(C1)[C@H]1CCCC(=O)N1C2 (some centres not stated) | inactive |
| Cc1cc(C)n2ncc(C(=O)N3CCC(c4[nH]ncc4-c4ccccc4)CC3)c2n1 | inconclusive: 25.1 µM [inhibitor, partial curve, poor fit] |
| COc1cc(OC)cc(C(=O)Nc2ccc3oc(-c4ccncc4)nc3c2)c1 | inconclusive: 31.6 µM [inhibitor, partial curve, poor fit] |
| O=C(CCN1C(=O)c2ccccc2Sc2ncccc21)Nc1ccc(F)cc1F | inconclusive: 17.8 µM [inhibitor, partial curve, poor fit] |
| CCNC(=O)[C@@H]1C[C@H](NC(=O)Cc2cc(C)ccc2C)CN1C1CCCC1 | inconclusive: 20 µM [inhibitor, partial curve, poor fit] |
| O=C(C1CCOCC1)N1CCC2(CC1)CC(N1CCCC1)CCO2 (configuration not stated) | inconclusive: 17.8 µM [inhibitor, single point] |
| Cn1ccc(C2CCCCN2Cc2cc(=O)c3cc(C(N)=O)ccc3[nH]2)n1 (configuration not stated) | inconclusive: 22.4 µM [inhibitor, single point] |
| COc1ccc(-c2nc(C#N)c(N3CCN(C)CC3)o2)cc1OC | inconclusive: 1.78 µM [inhibitor, partial curve, poor fit] |
| CCOCCCNC(=O)c1cc(Sc2cccc(Cl)c2)nc2ccccc12 | inconclusive: 39.8 µM [inhibitor, single point] |
| NCc1ccc(C(F)(F)F)cc1 | inactive |
| COc1ccc(C(=O)N2CCC3(CC2)c2[nH]c4ccccc4c2CCN3C)cn1 | inconclusive: 20 µM [inhibitor, partial curve, poor fit] |

| SMILES | Potency |
| --- | --- |
| O=C(c1cc(COc2cccc3cnccc23)on1)N1CCCC(CCCO)C1 (configuration not stated) | inconclusive: 31.6 µM [inhibitor, partial curve, poor fit] |
| OC(c1nc(Nc2ccc(N3CCOCC3)cc2)n[nH]1)C1CC1 (configuration not stated) | inconclusive: 28.2 µM [inhibitor, single point] |
| Cc1ccc(Nc2sc(C(=O)c3ccccc3)c(N)c2C(=O)Nc2ccc(Cl)cc2)cc1 | inconclusive: 22.4 µM [inhibitor, single point] |
| CCN1C(C(=O)c2ccccc2)=C(OC(=O)COc2ccc(OC)cc2)c2ccccc2S1(=O)=O | inconclusive: 25.1 µM [inhibitor, partial curve, poor fit] |
| CCc1ccc(C(=O)N2CCC(Cc3nc(-c4cccc(OC)c4)no3)CC2)cc1 | inactive |
| CCNC(=O)c1cc2n(n1)CC(c1ccc(Br)cc1)OC2 (configuration not stated) | inconclusive: 28.2 µM [inhibitor, single point] |
| COc1ccc(C(=O)NC2CCN(c3cc(-c4ccc(F)cc4)[nH]n3)C2)c(OC)c1 (configuration not stated) | inconclusive: 11.2 µM [inhibitor, partial curve] |
| Cc1ccc(N(C)S(=O)(=O)c2c(-c3cccc(F)c3)csc2C(=O)NCc2cccnc2)cc1 | inactive |
| c1ccc(-c2nnc(CN3CCCCC3)o2)cc1 | inconclusive: 35.5 µM [inhibitor, single point] |
| COc1cc(/C=C(/C#N)c2nc3ccccc3[nH]2)cc(Cl)c1OC(C)C | inconclusive: 31.6 µM [inhibitor, single point] |
| N#Cc1cccnc1N1CCN(Cc2cn(-c3ccccc3)nn2)CC1 | active: 22.4 µM |
| CSc1ccccc1C(=O)N1CCOC(Cc2cccc(F)c2)C1 (configuration not stated) | inactive |
| COC(=O)C1=CNC=C(C(=O)OC)C1c1ccc(F)c(F)c1 | inconclusive: 25.1 µM [inhibitor, partial curve, poor fit] |
| Cc1cc(C)cc(NC(=O)CCn2c(=O)n(C)c3ccccc32)c1 | inactive |
| COc1ccc(CN2CCN(Cc3cc4ccccc4[nH]3)CC2CCO)c(C)c1C (configuration not stated) | inconclusive: 3.55 µM [inhibitor, partial curve, poor fit] |
| c1ccc(-c2noc(-c3cncnc3NCC3CCCO3)n2)cc1 (configuration not stated) | inconclusive: 28.2 µM [inhibitor, single point] |
| Cc1ccc(S(=O)(=O)N2CCCN(CCS(=O)(=O)CCC(N)=O)CC2)cc1 | inconclusive: 39.8 µM [inhibitor, single point] |
| O=C(Nc1cc(Cl)cc(Cl)c1)c1coc(=O)c(Br)c1 | inconclusive: 22.4 µM [inhibitor, partial curve, poor fit] |
| Cc1cccn2c(=O)c(/C=C(\C#N)C(=O)NCc3ccccc3)c(N3CCC(C(N)=O)CC3)nc12 | inconclusive: 35.5 µM [inhibitor, single point] |
| Cc1noc2c(NCCN(C)C)cc(-c3ccccc3)nc12 | inactive |
